From the supplement of paper PMC11369174, “Proteome-scale characterisation of motif-based interactome rewiring by disease mutations” (Molecular Systems Biology, 2024) come the findings set out here.

This is one part of the list. Single values of this set are uncertain.

Common to all, as to test: mutation enrichment score (mutant vs wild-type peptide binding to bait); baits are purified protein domains named by gene / domain / UniProt id / residues; peptides come from disordered regions of human proteins; higher = mutation enhances binding relative to wild type
For test [1], the target named is T1, AP2B1_adaptin__P63010_700_937.
T1 chain: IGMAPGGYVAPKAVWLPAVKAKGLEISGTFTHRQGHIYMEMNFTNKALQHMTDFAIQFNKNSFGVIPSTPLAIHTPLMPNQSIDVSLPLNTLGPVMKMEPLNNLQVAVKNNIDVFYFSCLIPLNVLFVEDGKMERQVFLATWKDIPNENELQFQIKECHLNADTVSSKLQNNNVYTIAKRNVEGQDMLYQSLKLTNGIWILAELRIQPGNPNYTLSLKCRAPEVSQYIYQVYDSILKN
The following applies: wild-type window: ….

The target of test [2] is T2, AP1G2_GAE__O75843_665_785.
T2 chain: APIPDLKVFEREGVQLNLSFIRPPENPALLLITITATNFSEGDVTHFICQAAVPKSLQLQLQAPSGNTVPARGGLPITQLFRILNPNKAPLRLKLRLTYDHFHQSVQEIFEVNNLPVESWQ
The following applies: wild-type window: ….

Test [3] addresses PTBP1_RRM_2_P26599_157_285. To be noted: number of wild-type / mutant comparisons summed (bounds the score): 12; paper call: enhanced; wild-type window: ….
For a further test, the target named is T3, AP2_Mu__Q96CW1_160_435.
T3 chain: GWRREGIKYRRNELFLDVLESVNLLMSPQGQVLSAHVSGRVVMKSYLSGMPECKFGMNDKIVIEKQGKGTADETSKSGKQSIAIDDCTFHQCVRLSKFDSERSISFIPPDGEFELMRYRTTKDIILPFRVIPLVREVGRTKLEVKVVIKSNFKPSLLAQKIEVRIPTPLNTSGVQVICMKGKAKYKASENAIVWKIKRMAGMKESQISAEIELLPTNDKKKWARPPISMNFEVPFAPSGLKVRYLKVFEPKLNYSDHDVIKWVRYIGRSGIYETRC
The following applies: number of wild-type / mutant comparisons summed (bounds the score): 6, wild-type window: ….

Test [4] concerns the target T4, CSK21_Pkinase__P68400_1_335.
T4 chain: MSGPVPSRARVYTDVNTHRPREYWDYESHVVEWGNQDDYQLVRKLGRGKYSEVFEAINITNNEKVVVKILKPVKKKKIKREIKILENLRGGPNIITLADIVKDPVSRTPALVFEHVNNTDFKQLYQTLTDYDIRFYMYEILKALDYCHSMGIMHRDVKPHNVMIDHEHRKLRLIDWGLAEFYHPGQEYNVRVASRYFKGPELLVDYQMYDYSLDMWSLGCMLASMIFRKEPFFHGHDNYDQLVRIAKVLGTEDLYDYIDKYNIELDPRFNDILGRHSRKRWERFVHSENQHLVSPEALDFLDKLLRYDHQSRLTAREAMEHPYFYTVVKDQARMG
The following applies: paper call: no_effect, wild-type window: ….

Test [5] concerns the target T5, EPHB2_Pkinase__P29323_604_898.
T5 chain: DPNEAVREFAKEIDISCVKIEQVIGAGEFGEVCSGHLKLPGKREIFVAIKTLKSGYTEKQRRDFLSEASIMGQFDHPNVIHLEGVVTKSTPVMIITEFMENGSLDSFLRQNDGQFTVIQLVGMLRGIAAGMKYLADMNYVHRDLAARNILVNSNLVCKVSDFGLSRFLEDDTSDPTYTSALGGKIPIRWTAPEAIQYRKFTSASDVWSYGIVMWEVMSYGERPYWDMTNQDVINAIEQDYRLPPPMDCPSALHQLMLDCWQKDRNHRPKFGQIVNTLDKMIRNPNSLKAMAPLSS
To be noted: number of wild-type / mutant comparisons summed (bounds the score): 12; paper call: no_effect; wild-type window: ….

In test [6] the target is T6, PEX14_Pex14__O75381_16_84.
T6 chain: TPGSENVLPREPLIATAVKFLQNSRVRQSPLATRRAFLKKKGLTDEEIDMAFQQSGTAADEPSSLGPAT
To be noted: number of wild-type / mutant comparisons summed (bounds the score): 6; paper call: no_effect; wild-type window: ….

Test [7] addresses T7, CLTC_Clathrin-propeller__Q00610_1_364.
T7 chain: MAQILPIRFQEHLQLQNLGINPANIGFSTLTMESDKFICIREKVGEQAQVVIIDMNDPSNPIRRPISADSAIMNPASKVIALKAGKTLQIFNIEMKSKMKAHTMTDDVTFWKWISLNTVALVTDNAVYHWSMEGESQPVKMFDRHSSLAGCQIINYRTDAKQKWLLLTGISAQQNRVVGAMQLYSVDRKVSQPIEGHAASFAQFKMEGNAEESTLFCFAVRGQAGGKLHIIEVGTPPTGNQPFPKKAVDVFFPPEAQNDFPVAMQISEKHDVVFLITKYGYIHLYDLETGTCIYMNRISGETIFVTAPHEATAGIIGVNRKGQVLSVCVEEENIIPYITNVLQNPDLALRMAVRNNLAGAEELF
The following applies: number of wild-type / mutant comparisons summed (bounds the score): 6; paper call: no_effect; wild-type window: ….

For test [8], the target named is CREBBP_NCBD__Q92793_2062_2109. To be noted: number of wild-type / mutant comparisons summed (bounds the score): 15; paper call: enhanced; wild-type window: ….
In a further test the target is KPNA4_Arm__O00629_68_487. The following applies: number of wild-type / mutant comparisons summed (bounds the score): 18; paper call: no_effect; wild-type window: ….
[9] abbreviates: number of wild-type / mutant comparisons summed (bounds the score): 6, paper call: enhanced.
The mark [10] stands for this setting: number of wild-type / mutant comparisons summed (bounds the score): 12, paper call: no_effect.
The mark [11] stands for this setting: number of wild-type / mutant comparisons summed (bounds the score): 6, paper call: no_effect.
Where [12] appears, read: number of wild-type / mutant comparisons summed (bounds the score): 6, paper call: diminished.

Sequence of KPNA4_Arm__O00629_68_487 (chain, as listed by the source): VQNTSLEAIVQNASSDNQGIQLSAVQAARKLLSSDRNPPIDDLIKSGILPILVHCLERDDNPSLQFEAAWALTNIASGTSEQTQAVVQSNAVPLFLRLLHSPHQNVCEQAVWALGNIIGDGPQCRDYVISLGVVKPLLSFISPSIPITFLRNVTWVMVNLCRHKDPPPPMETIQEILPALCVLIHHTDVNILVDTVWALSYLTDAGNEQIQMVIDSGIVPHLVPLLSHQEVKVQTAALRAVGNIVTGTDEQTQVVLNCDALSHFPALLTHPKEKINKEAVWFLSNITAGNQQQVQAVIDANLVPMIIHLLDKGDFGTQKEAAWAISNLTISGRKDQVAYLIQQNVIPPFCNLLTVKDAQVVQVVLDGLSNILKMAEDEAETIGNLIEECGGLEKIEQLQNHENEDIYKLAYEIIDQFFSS

On to PQEKQVHKSILPNSLGVSERWQRLTFPAVSVKVNGHDQGQN [L785W L785W], for which, in test [1] (setting [9]), the mutation enrichment score was 6. As for QLITVREEAWKTRGRGAANDWTQFTVAGRMVKKGLASPTAI [S1209W S1209W], the mutation enrichment score in test [2] (setting [9]) worked out at 6. Take NRKTSNGDDSLFFSNFSLLGAPVLKDINFKIERGQLLAVAG [T438A T438A]: the mutation enrichment score was 3.1 in test [1] (setting [10]) and 5.9 in test [3]. As for LGKMPYERFTNSETAEHIAQDLRLYRPHLASEKVYTIMYSC [G613D G613D], the mutation enrichment score in the test with AP2_Mu__Q96CW1_160_435 (paper call: enhanced) was 6. TIPMPAGYFMPIFVYGAAIGSLFGETLSFIFPEGIVAGGIT [R438S R438S]: the mutation enrichment score in [1] (setting [11]) is 5. As to MWEIYSLGKMPYERFTNSETDEHIAQGLRLYRPHLASEKVY [A607D A607D], the mutation enrichment score in the test with AP2_Mu__Q96CW1_160_435 (paper call: enhanced) was determined as 6. On to KLALDMEIHAYRKLLEGEEETLRLSPSPTSQRSRGRASSHS [R386T R386T], for which, in the test with AP2_Mu__Q96CW1_160_435 (paper call: no_effect), the mutation enrichment score is 3. Consider AEKNPVGLARNEPDPLEKPNWPDTSFIWFLNPLKSARYFLW [R1939W R1939W], for which the mutation enrichment score in test [1] (setting [11]) was found to be 2. As to AVLSYLKFFNCQKHSPFSLSCWFWLTLTGVACSCAVGIKYM [W186C W186C], the values for the mutation enrichment score in [1] (setting [9]) and in [4] (number of wild-type / mutant comparisons summed (bounds the score): 6) were 6 and 1, respectively.

Turning to HHTSKIQEFADLTQVETFGFWGEALSSLCALSDVTISTCHA [R107W R107W], the mutation enrichment score in test [1] (number of wild-type / mutant comparisons summed (bounds the score): 12, paper call: enhanced) turned out to be 10.

With NDHFDTYADALWWGLITLTTNGYGDKYPQTWNGRLLAATFT [I278N I278N], the mutation enrichment score is 0 with AP2_Mu__Q96CW1_160_435 (paper call: no_effect), -1 in test [5] and 3 in test [6]. As to GTNMTYGTSPSGLNMGELIAWMVRNMDNSLLQDSDLDPRGS [R289W R289W], the results for the mutation enrichment score in [2] (setting [11]), in test [7] and in [8] were 6, 6 and 11, respectively. Consider QGADAHSKELNKLPLPSKSVGWTHFGGSPPSDEIRTLRDQL [D675G D675G], for which, in [2] (number of wild-type / mutant comparisons summed (bounds the score): 12, paper call: diminished), the mutation enrichment score is -7.

As for SLLCNLIGFVYPAYASIKAIKSPSKDDDTVWLTYWVVYALF [E75K E75K], the mutation enrichment score in test [2] (setting [11]) is -3.1. Turning to EDRYEEEIKVLSDKLKEAETWAEFAERSVTKLEKSIDDLED [R238W R238W], the mutation enrichment score in test [1] (setting [10]) came to 4. Turning to RDLLVGAAKHGVSRTDYHILSDPELSFLDAHKNFAQNRGAG [N2118S N2118S], the mutation enrichment score with AP2_Mu__Q96CW1_160_435 (paper call: no_effect) was -4.9. With VRSDVWSLGITLYELATGRFRYPKWNSVFDQLTQVVKGDPP [P306R P306R], the mutation enrichment score was -6 in test [1] (setting [12]) and -5 in test [6].

KLEDQLVQQEAAQQQQALASCQQWVADGPGILNEPGEVDSE [W1047C W1047C]: the mutation enrichment score in test [2] (number of wild-type / mutant comparisons summed (bounds the score): 18, paper call: diminished) was -14. ATGRFPYPKWNSVFDQLTQVEKGDPPQLSNSEEREFSPSFI [V321E V321E]: the mutation enrichment score is -6 in test [1] (setting [12]) and -5 in test [6]. NRSNCALFSTNLDWLVSKLDWLEASSGILEVLYCVLIESPE [R552W R552W]: the figures for the mutation enrichment score (in [1] (setting [10]); in [4] (number of wild-type / mutant comparisons summed (bounds the score): 12); with KPNA4_Arm__O00629_68_487) were 4, 2.3 and -2, respectively.
